Experimental data taken from PMC4336329 (PLoS ONE, 2015).
In all, about 310,000 compounds went through this assay and about 14,000 (4.5%) showed an effect of 50% or more. Effects have a minus sign here. This is one part of the list.

molecular target: human ether-à-go-go-related gene (hERG) potassium channel (human, UniProt Q12809); assay: primary screen, population patch clamp on CHO cells stably expressing hERG
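Also: peak tail current of the secondary pulse compared with the same well before compound.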

Sequence of human ether-à-go-go-related gene (hERG) potassium channel (Q12809 whole entry, looked up): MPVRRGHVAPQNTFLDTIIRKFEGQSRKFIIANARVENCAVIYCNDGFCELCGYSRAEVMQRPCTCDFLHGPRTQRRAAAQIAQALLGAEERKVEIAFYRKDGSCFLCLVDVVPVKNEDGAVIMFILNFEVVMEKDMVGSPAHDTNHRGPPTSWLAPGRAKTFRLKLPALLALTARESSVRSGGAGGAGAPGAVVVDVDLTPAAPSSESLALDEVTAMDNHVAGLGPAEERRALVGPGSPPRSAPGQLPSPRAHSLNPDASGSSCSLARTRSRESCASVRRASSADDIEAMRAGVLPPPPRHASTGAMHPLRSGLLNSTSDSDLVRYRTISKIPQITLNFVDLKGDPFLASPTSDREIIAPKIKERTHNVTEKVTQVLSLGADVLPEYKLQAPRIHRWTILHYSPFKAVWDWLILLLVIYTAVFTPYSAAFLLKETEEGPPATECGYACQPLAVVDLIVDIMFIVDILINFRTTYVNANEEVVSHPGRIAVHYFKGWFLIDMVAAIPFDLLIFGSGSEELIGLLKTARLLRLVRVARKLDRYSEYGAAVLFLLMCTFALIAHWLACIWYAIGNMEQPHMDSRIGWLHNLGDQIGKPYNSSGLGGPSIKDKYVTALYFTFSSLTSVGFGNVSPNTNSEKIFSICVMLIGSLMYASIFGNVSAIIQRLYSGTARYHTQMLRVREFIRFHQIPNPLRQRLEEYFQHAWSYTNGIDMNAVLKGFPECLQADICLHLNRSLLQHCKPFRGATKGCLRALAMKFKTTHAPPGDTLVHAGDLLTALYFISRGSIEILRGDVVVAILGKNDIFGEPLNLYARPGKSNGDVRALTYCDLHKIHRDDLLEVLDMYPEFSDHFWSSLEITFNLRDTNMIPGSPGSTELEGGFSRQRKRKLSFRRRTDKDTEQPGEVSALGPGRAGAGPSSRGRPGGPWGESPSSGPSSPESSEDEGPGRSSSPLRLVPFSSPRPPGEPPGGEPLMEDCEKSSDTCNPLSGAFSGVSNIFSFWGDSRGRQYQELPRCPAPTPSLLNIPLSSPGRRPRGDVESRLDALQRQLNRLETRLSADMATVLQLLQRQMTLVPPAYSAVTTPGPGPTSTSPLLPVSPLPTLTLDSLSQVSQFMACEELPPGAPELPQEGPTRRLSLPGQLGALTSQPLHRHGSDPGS

Row | Structure (SMILES) | hERG current change (%, negative = inhibition) at 10uM [%]
1 | O=C(O)c1ccc(Nc2ncnc3c2cnn3Cc2ccccc2)cc1 | 22.8
2 | NS(=O)(=O)c1ccc(N/N=C/c2ccccn2)c([N+](=O)[O-])c1 | 23.2
3 | O=C1C(c2ccccc2)=C(N2CC2)c2ccccc21 | 3.53
4 | O=C(NC(=S)Nc1ccc2ncccc2c1)c1ccccc1 | 2.36
5 | c1ccc2sc(N3CCCN(Cc4nc(-c5cnccn5)no4)CC3)nc2c1 | -35.8
6 | CC(C)C(=O)OCC(=O)Nc1ccc2c(c1)CCC2 | 12.5
7 | CCCN(Cc1nnc(-c2ccccc2Cl)o1)C(=O)c1cc(S(=O)(=O)N2CCOCC2)ccc1F | -47.7
8 | O=C(c1cc2ccccc2oc1=O)N1CCN(CCc2ccccc2)CC1 | -71.8
9 | Cc1cccc(C)c1NC(=O)COC(=O)C1Cc2ccccc2CN1C(=O)c1ccccc1 (stereo not drawn) | -6.54
10 | O=C(c1ccc2c(=O)n(Cc3ccccc3)c(=S)[nH]c2c1)N1CCOCC1 | 26.9
11 | C=CCNC(=S)N1CCN(CCNC2=CC(=O)CC(C)(C)C2)CC1 | 28.7
12 | COc1ccc(/C(C)=N/OC/C(O)=C(\C#N)c2nc3ccccc3[nH]2)c(OC)c1 | 17.6
13 | CC1CCN(S(=O)(=O)c2csc(C(=O)Nc3ccccc3)c2)CC1 | -0.558
14 | CSc1nc(C)cc(OCC#N)n1 | 9.22
15 | Cc1cc(C)n(-c2nc3ccccc3n3nnnc23)n1 | 3.15
16 | CCN(CC(=O)Nc1cc(C)c(Cl)cc1OC)CC(=O)NC1CCS(=O)(=O)C1 (stereo not drawn) | 15.2
17 | O=C1c2ccccc2C(=O)N1CCCCN(C(=O)c1ccc([N+](=O)[O-])cc1)c1ccc(Cl)cc1 | -3.93
18 | C=CCn1c(SCC(=O)c2c(C)[nH]c3ccccc23)nnc1-c1ccncc1 | 21.3
19 | COC(=O)C1CN(S(=O)(=O)c2cc(OC)ccc2OC)CCS1 (stereo not drawn) | 13.6
20 | COc1ccc(N2CCN(C(=O)c3sc4ncn(CC(=O)N5CCCCC5)c(=O)c4c3C)CC2)cc1 | -12.9
21 | CCOC(=O)CCc1c(C)nc2c(c(C)nn2-c2ccc(C)cc2)c1C | 20.4
22 | c1ccc(-c2nc(-c3nccc4ccccc34)oc2-c2ccccc2)cc1 | -6.54
23 | CC(C(=O)Nc1ccccc1F)N1C(=O)c2ccccc2C1=O (stereo not drawn) | 4.21
24 | Cc1cc(C)nc(Sc2c(C)nn(-c3ccccc3)c2C)n1 | -1.91
